{"source": "the supplement of paper PMC8728848", "assay_in_all_cases": "glycan array binding signal (z-score within array); higher = stronger binding", "settings_in_all_cases": "glycan notation: IUPAC condensed, linker removed", "key": {"[1]": {"target": "Gal(b1-3)GlcNAc(b1-6)[Gal(b1-3)]GalNAc", "procedure,_shortened": "(§1)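 Columns mapping to the same glycan were averaged after glycan names were converted to IUPAC-condensed notation. The data come from 3228 arrays in the Consortium for Functional Glycomics database, limited to those with an available protein sequence. Binding is reported as a within-array Z-score averaged across arrays of one protein sequence and across linkers.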"}, "Gal(b1-3)GlcNAc6S": {"target": "Gal(b1-3)GlcNAc6S", "procedure,_shortened": "as §1"}, "[2]": {"target": "Gal(b1-3)[Fuc(a1-4)]GlcNAc", "procedure,_shortened": "as §1"}, "[3]": {"target": "Gal(b1-3)[Fuc(a1-4)]GlcNAc(b1-2)Man", "procedure,_shortened": "as §1"}, "[4]": {"target": "Gal(b1-3)[Fuc(a1-4)]GlcNAc(b1-2)Man(a1-3)[Gal(b1-3)[Fuc(a1-4)]GlcNAc(b1-2)Man(a1-6)]Man(b1-4)GlcNAc(b1-4)[Fuc(a1-6)]GlcNAc", "procedure,_shortened": "as §1"}, "[5]": {"target": "Gal(b1-3)[Fuc(a1-4)]GlcNAc(b1-3)Gal(b1-3)[Fuc(a1-4)]GlcNAc", "procedure,_shortened": "as §1"}, "[6]": {"target": "Gal(b1-3)[Fuc(a1-4)]GlcNAc(b1-3)Gal(b1-4)[Fuc(a1-3)]GlcNAc", "procedure,_shortened": "as §1"}, "[7]": {"target": "Gal(b1-3)[Fuc(a1-4)]GlcNAc(b1-6)GalNAc", "procedure,_shortened": "as §1"}, "[8]": {"target": "Gal(b1-3)[GlcNAc(b1-6)]GalNAc", "procedure,_shortened": "as §1"}, "[9]": {"target": "Gal(b1-3)[Neu5Ac(a2-6)]GalNAc", "procedure,_shortened": "as §1"}, "[10]": {"target": "Gal(b1-3)[Neu5Ac(a2-6)]GlcNAc(b1-4)Gal(b1-4)Glc", "procedure,_shortened": "as §1"}, "[11]": {"target": "Gal(b1-3)[Neu5Ac(b2-6)]GalNAc", "procedure,_shortened": "as §1"}, "Gal(b1-4)Gal": {"target": "Gal(b1-4)Gal", "procedure,_shortened": "as §1"}, "[12]": {"target": "Gal(b1-4)GalNAc(a1-3)[Fuc(a1-2)]Gal(b1-4)GlcNAc", "procedure,_shortened": "as §1"}, "[13]": {"target": "Gal(b1-4)GalNAc(b1-3)[Fuc(a1-2)]Gal(b1-4)GlcNAc", "procedure,_shortened": "as §1"}, "Gal(b1-4)Glc": {"target": "Gal(b1-4)Glc", "procedure,_shortened": "as §1"}, "Gal(b1-4)Glc6S": {"target": "Gal(b1-4)Glc6S", "procedure,_shortened": "as §1"}, "Gal(b1-4)GlcNAc": {"target": "Gal(b1-4)GlcNAc", "procedure,_shortened": "as §1"}, "[14]": {"target": "Gal(b1-4)GlcNAc(a1-6)Gal(b1-4)GlcNAc", "procedure,_shortened": "as §1"}, "Gal(b1-4)GlcNAc(b1-2)Man": {"target": "Gal(b1-4)GlcNAc(b1-2)Man", "procedure,_shortened": "as §1"}, "[15]": {"target": "Gal(b1-4)GlcNAc(b1-2)Man(a1-3)Man(b1-4)GlcNAc(b1-4)GlcNAc", "procedure,_shortened": "as §1"}, "[16]": {"target": "Gal(b1-4)GlcNAc(b1-2)Man(a1-3)[Gal(b1-4)GlcNAc(b1-2)Man(a1-6)]Man(b1-4)GlcNAc(b1-4)GlcNAc", "procedure,_shortened": "as §1"}, "[17]": {"target": "Gal(b1-4)GlcNAc(b1-2)Man(a1-3)[Gal(b1-4)GlcNAc(b1-2)Man(a1-6)]Man(b1-4)GlcNAc(b1-4)[Fuc(a1-6)]GlcNAc", "procedure,_shortened": "as §1"}, "[18]": {"target": "Gal(b1-4)GlcNAc(b1-2)Man(a1-3)[Gal(b1-4)GlcNAc(b1-2)Man(a1-6)][Gal(b1-4)GlcNAc(b1-4)]Man(b1-4)GlcNAc(b1-4)[Fuc(a1-6)]GlcNAc", "procedure,_shortened": "as §1"}, "[19]": {"target": "Gal(b1-4)GlcNAc(b1-2)Man(a1-3)[Gal(b1-4)GlcNAc(b1-2)Man(a1-6)][GlcNAc(b1-4)]Man(b1-4)GlcNAc(b1-4)[Fuc(a1-6)]GlcNAc", "procedure,_shortened": "as §1"}, "[20]": {"target": "Gal(b1-4)GlcNAc(b1-2)Man(a1-3)[GlcNAc(b1-2)Man(a1-6)]Man(b1-4)GlcNAc(b1-4)GlcNAc", "procedure,_shortened": "as §1"}, "[21]": {"target": "Gal(b1-4)GlcNAc(b1-2)Man(a1-3)[GlcNAc(b1-4)][Gal(b1-4)GlcNAc(b1-2)Man(a1-6)]Man(b1-4)GlcNAc(b1-4)GlcNAc", "procedure,_shortened": "as §1"}, "[22]": {"target": "Gal(b1-4)GlcNAc(b1-2)Man(a1-3)[Man(a1-6)]Man(b1-4)GlcNAc(b1-4)GlcNAc", "procedure,_shortened": "as §1"}, "[23]": {"target": "Gal(b1-4)GlcNAc(b1-2)Man(a1-6)Man(b1-4)GlcNAc(b1-4)GlcNAc", "procedure,_shortened": "as §1"}, "[24]": {"target": "Gal(b1-4)GlcNAc(b1-2)Man(a1-6)[GlcNAc(b1-2)Man(a1-3)]Man(b1-4)GlcNAc(b1-4)GlcNAc", "procedure,_shortened": "as §1"}, "[25]": {"target": "Gal(b1-4)GlcNAc(b1-2)Man(a1-6)[Man(a1-3)]Man(b1-4)GlcNAc(b1-4)GlcNAc", "procedure,_shortened": "as §1"}, "[26]": {"target": "Gal(b1-4)GlcNAc(b1-2)[Gal(b1-4)GlcNAc(b1-4)]Man(a1-3)[Gal(b1-4)GlcNAc(b1-2)Man(a1-6)]Man(b1-4)GlcNAc(b1-4)GlcNAc", "procedure,_shortened": "as §1"}, "[27]": {"target": "Gal(b1-4)GlcNAc(b1-2)[Gal(b1-4)GlcNAc(b1-4)]Man(a1-3)[Gal(b1-4)GlcNAc(b1-2)[Gal(b1-4)GlcNAc(b1-6)]Man(a1-6)]Man(b1-4)GlcNAc(b1-4)GlcNAc", "procedure,_shortened": "as §1"}, "[28]": {"target": "Gal(b1-4)GlcNAc(b1-2)[Gal(b1-4)GlcNAc(b1-4)]Man(a1-3)[GlcNAc(b1-4)][Gal(b1-4)GlcNAc(b1-2)Man(a1-6)]Man(b1-4)GlcNAc(b1-4)GlcNAc", "procedure,_shortened": "as §1"}, "[29]": {"target": "Gal(b1-4)GlcNAc(b1-2)[Gal(b1-4)GlcNAc(b1-4)]Man(a1-3)[GlcNAc(b1-4)][Gal(b1-4)GlcNAc(b1-2)[Gal(b1-4)GlcNAc(b1-6)]Man(a1-6)]Man(b1-4)GlcNAc(b1-4)GlcNAc", "procedure,_shortened": "as §1"}, "[30]": {"target": "Gal(b1-4)GlcNAc(b1-2)[Gal(b1-4)GlcNAc(b1-6)]Man(a1-6)[Gal(b1-4)GlcNAc(b1-2)Man(a1-3)]Man(b1-4)GlcNAc(b1-4)GlcNAc", "procedure,_shortened": "as §1"}, "[31]": {"target": "Gal(b1-4)GlcNAc(b1-2)[Gal(b1-4)GlcNAc(b1-6)]Man(a1-6)[Gal(b1-4)GlcNAc(b1-2)Man(a1-3)]Man(b1-4)GlcNAc(b1-4)[Fuc(a1-6)]GlcNAc", "procedure,_shortened": "as §1"}}, "note": "The other results are listed elsewhere or left out.", "data": [{"binder": "Clec18C (Homo sapiens) (protein) MLHPETSPGRGHLLAVLLALLGTAWAEVWPPQLQEQAPMAGALNRKESFLLLSLHNRLRSWVQPPAADMRRLDWSDSLAQLAQARAALCGTPTPSLASGLWRTLQVGWNMQLLPAGLVSFVEVVSLWFAEGQRYSHAAGECARNATCTHYTQLVWATSSQLGCGRHLCSAGQAAIEAFVCAYSPRGNWEVNGKTIVPYKKGAWCSLCTASVSGCFKAWDHAGGLCEVPRNPCRMSCQNHGRLNISTCHCHCPPGYTGRYCQVRCSLQCVHGRLREEECSCVCDIGYGGAQCATKVHFPFHTCDLRIDGDCFMVSSEADTYYRARMKCQRKGGVLAQIKSQKVQDILAFYLGRLETTNEVIDSDFETRNFWIGLTYKTAKDSFRWATGEHQAFTSFAFGQPDNHGFGNCVELQASAAFNWNNQRCKTRNRYICQFAQEHISRWGPGS", "values": [{"measurement": "glycan array binding signal (z-score)", "setting": "[1]", "result": 0.043}, {"measurement": "glycan array binding signal (z-score)", "setting": "Gal(b1-3)GlcNAc6S", "result": 1.78}, {"measurement": "glycan array binding signal (z-score)", "setting": "[2]", "result": 0.006}, {"measurement": "glycan array binding signal (z-score)", "setting": "[3]", "result": 0.037}, {"measurement": "glycan array binding signal (z-score)", "setting": "[4]", "result": -0.396}, {"measurement": "glycan array binding signal (z-score)", "setting": "[5]", "result": -0.594}, {"measurement": "glycan array binding signal (z-score)", "setting": "[6]", "result": -0.528}, {"measurement": "glycan array binding signal (z-score)", "setting": "[7]", "result": -0.263}, {"measurement": "glycan array binding signal (z-score)", "setting": "[8]", "result": 4.42}, {"measurement": "glycan array binding signal (z-score)", "setting": "[9]", "result": -0.24}, {"measurement": "glycan array binding signal (z-score)", "setting": "[10]", "result": 1.42}, {"measurement": "glycan array binding signal (z-score)", "setting": "[11]", "result": -0.502}, {"measurement": "glycan array binding signal (z-score)", "setting": "Gal(b1-4)Gal", "result": 1.61}, {"measurement": "glycan array binding signal (z-score)", "setting": "[12]", "result": 1.12}, {"measurement": "glycan array binding signal (z-score)", "setting": "[13]", "result": 1.57}, {"measurement": "glycan array binding signal (z-score)", "setting": "Gal(b1-4)Glc", "result": 0.045}, {"measurement": "glycan array binding signal (z-score)", "setting": "Gal(b1-4)Glc6S", "result": 0.371}, {"measurement": "glycan array binding signal (z-score)", "setting": "Gal(b1-4)GlcNAc", "result": 0.293}, {"measurement": "glycan array binding signal (z-score)", "setting": "[14]", "result": -0.238}, {"measurement": "glycan array binding signal (z-score)", "setting": "Gal(b1-4)GlcNAc(b1-2)Man", "result": -0.391}, {"measurement": "glycan array binding signal (z-score)", "setting": "[15]", "result": 1.28}, {"measurement": "glycan array binding signal (z-score)", "setting": "[16]", "result": 5.03}, {"measurement": "glycan array binding signal (z-score)", "setting": "[17]", "result": 0.406}, {"measurement": "glycan array binding signal (z-score)", "setting": "[18]", "result": -0.546}, {"measurement": "glycan array binding signal (z-score)", "setting": "[19]", "result": 1.07}, {"measurement": "glycan array binding signal (z-score)", "setting": "[20]", "result": 1.5}, {"measurement": "glycan array binding signal (z-score)", "setting": "[21]", "result": 1.96}, {"measurement": "glycan array binding signal (z-score)", "setting": "[22]", "result": 0.188}, {"measurement": "glycan array binding signal (z-score)", "setting": "[23]", "result": -0.478}, {"measurement": "glycan array binding signal (z-score)", "setting": "[24]", "result": -0.411}, {"measurement": "glycan array binding signal (z-score)", "setting": "[25]", "result": 0.267}, {"measurement": "glycan array binding signal (z-score)", "setting": "[26]", "result": 0.041}, {"measurement": "glycan array binding signal (z-score)", "setting": "[27]", "result": 1.38}, {"measurement": "glycan array binding signal (z-score)", "setting": "[28]", "result": 2.58}, {"measurement": "glycan array binding signal (z-score)", "setting": "[29]", "result": 1.22}, {"measurement": "glycan array binding signal (z-score)", "setting": "[30]", "result": 0.225}, {"measurement": "glycan array binding signal (z-score)", "setting": "[31]", "result": 1.12}]}]}
